Results: PubChem BioAssay AID485360 (National Center for Advancing Translational Sciences (NCATS), 2010)
Hit rate of the full screen: of about 230,000 compounds, about 1,500 (0.65%) were called active. Inconclusive results, whose numbers are uncertain, are shown with a selection of clear calls. The call rests on the fitted dose curve; in most records, active means well fitted inhibition curve with a large enough effect; inconclusive means small, poorly fitted or top-dose-only effect; inactive means no such curve, though single readings can be large or run the other way. Where the call is inconclusive, the potency comes from a doubtful curve fit.

target: Lethal(3)malignant brain tumor-like protein 1 (Homo sapiens) (UniProt Q9Y468); test: qHTS Assay for the Inhibitors of L3MBTL1; conditions: AlphaScreen L3MBTL1–H3K9me1 peptide binding; activity, negative = inhibition: at 57.1 µM (top of the series); further: nearly all actives have a fitted effect of over 60% in size
In short: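 Displacement of a biotinylated histone H3(1-15) peptide monomethylated at Lys9 (75 nM) from L3MBTL1 (50 nM) was measured by AlphaScreen after a 30 min room-temperature compound incubation; cefsulodin titration served as intraplate control.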
On the % scale 0 is the no-effect control and ±100 the full control effect; potency means the concentration at half of the fitted maximal effect; tags describe the fitted curve by direction and shape.

Sequence of UniProt Q9Y468 (Q9Y468 whole entry, looked up): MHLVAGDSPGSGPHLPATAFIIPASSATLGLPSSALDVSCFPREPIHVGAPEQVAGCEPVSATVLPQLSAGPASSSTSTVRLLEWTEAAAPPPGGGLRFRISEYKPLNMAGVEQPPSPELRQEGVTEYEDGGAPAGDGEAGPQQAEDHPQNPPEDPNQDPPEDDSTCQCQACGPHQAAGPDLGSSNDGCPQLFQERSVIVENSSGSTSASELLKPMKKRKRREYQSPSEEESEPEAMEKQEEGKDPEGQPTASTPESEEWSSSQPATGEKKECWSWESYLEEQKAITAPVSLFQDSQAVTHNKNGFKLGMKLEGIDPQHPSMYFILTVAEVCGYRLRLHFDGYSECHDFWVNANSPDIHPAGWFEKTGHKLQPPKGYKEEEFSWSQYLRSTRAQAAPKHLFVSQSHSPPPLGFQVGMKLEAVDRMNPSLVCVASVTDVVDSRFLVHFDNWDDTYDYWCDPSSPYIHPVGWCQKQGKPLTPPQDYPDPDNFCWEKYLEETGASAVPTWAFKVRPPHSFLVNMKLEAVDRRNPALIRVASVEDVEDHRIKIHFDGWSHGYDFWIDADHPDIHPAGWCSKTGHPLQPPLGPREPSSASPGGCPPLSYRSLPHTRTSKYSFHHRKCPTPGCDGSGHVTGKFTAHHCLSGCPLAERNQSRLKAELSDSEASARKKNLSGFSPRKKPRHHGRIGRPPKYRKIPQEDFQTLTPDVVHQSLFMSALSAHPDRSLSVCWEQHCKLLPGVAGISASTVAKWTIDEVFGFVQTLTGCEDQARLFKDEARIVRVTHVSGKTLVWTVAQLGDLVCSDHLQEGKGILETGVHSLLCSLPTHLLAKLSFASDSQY

SMILES | Potency | activity, negative = inhibition
CSCCC(NC(=O)c1ccccc1)C(=O)Nc1ccc(C)cc1 (stereo not given) | inactive | –
Cc1ccc(C)c(S(=O)(=O)N2CCN(C(=O)/C=C/c3ccco3)CC2)c1 | inconclusive: 25.1 µM [inhibitor, single point] | –
O=C(CCc1ccccc1)N1CCN(Cc2ccc(F)cc2Cl)CC1 | inactive | –
COc1ccc(/C=C/C2=NNC(=O)CC2)cc1 | inconclusive: 10 µM [inhibitor, partial curve, poor fit] | –
N#C/C(=C/c1cn(-c2ccccc2)nc1-c1cccc(OCc2ccccc2)c1)C(=O)NCCCn1ccnc1 | inconclusive: 10 µM [inhibitor, partial curve] | –
CCOc1ccc(/C=N/Nc2ccc(C(F)(F)F)cc2[N+](=O)[O-])cc1O | inconclusive: 4.47 µM [inhibitor, full curve] | –
CCNc1nc(NCC)n2c(SCC(=O)Nc3ccc(OC(F)F)cc3)nnc2n1 | inconclusive: 39.8 µM [inhibitor, single point] | –
COc1ccc(N2CCN(C(=O)C3CCN(S(=O)(=O)c4ccc(F)cc4)CC3)CC2)cc1 | inconclusive: 22.4 µM [inhibitor, single point] | –
COc1ccc(S(=O)(=O)Nc2ccc(O)c(Sc3ncn[nH]3)c2)cc1 | inconclusive: 6.31 µM [inhibitor, single point] | –
CCOc1cc(CNc2ccc(OC)cc2)cc(Br)c1OCC(=O)NC(C)(C)C | inconclusive: 31.6 µM [inhibitor, single point] | –
Cc1ccc(C(=O)C(c2ccccc2)N2Cc3ccccc3C2=N)cc1 (stereo not given) | inconclusive: 15.8 µM [inhibitor, partial curve] | –
O=[N+]([O-])c1cccc2ccc(/C=C/c3cccc(Br)c3)nc12 | inconclusive: 2.51 µM [inhibitor, full curve, poor fit] | –
O=C(O)c1cccc(NC(=O)C2C3C=CC(C3)C2C(=O)O)c1 (stereo not given) | inconclusive: 31.6 µM [inhibitor, single point] | –
COc1cnc(-c2ccccn2)nc1Oc1c(C)cccc1C | inconclusive: 12.6 µM [inhibitor, partial curve] | –
CCCC(=O)OCCNc1cc(SCc2ccco2)c2nonc2c1[N+](=O)[O-] | inconclusive: 25.1 µM [inhibitor, single point] | –
COc1cc(Cl)c(C)cc1NC(=S)NN | inactive | –
O=C(CCN1CCN(CCO)CC1)Nc1cccc(Br)c1 | inconclusive: 0.708 µM [inhibitor, single point] | –
COc1ccc(OC)c(/C=N/NC(=O)CCN2CCN(C(c3ccccc3)c3ccccc3)CC2)c1 | inactive | –
COc1cc(/C=C/C(=O)Nc2nnc(C(C)(C)C)s2)cc(OC)c1OC | inactive | –
C=CCOc1ccc(/C=C\c2nc(O)c([N+](=O)[O-])c(=O)[nH]2)cc1OC | inactive | –
O=C1NC(=Nc2ccc(O)cc2)S/C1=C\C=C\c1ccco1 | active: 15.8 µM | –
CCN(CC)c1nc2ccccc2[nH]1 | inactive | –
O=c1cc(CSc2n[nH]c(-c3ccncc3)n2)nc2sccn12 | inconclusive: 39.8 µM [inhibitor, single point] | –
CC(Oc1ccc(Cl)cc1)c1ccn[nH]1 (stereo not given) | inconclusive: 22.4 µM [inhibitor, partial curve] | –

SMILES | Potency | activity, negative = inhibition
O=C(/C=C/c1ccccc1)c1ccccn1 | inactive | –
O=C(CSc1nc(-c2ccco2)cc(C(F)(F)F)n1)Nc1ccccc1C(F)(F)F | inconclusive: 10 µM [inhibitor, partial curve] | –
COc1cc(/C=N/Nc2nn3cnnc3c3ccccc23)ccc1O | inactive | –
C=C[C@@H]1c2cc(C)ccc2N(S(=O)(=O)c2ccc(C)cc2)[C@H](c2ccccc2)C1(C#N)S(=O)(=O)c1ccccc1 (stereo not given in full) | inactive | –
O=C(CSc1nnnn1-c1cccc(Cl)c1)Nc1ccc2c(c1)CCC2 | inconclusive: 0.794 µM [inhibitor, single point] | –
COCCn1c(C)cc(C(=O)COC(=O)c2ccc(N3CCCC3=O)cc2)c1C | – | inactive: -12.5% [at 11.4 µM]
COC(=O)C1=C(C)N(Cc2cccnc2)C(=O)/C1=C\c1sccc1C | inconclusive: 31.6 µM [inhibitor, single point] | –
O=C(O)c1ccc(N/N=C/c2cn(Cc3ccccc3F)c3ccccc23)cc1 | inconclusive: 28.2 µM [inhibitor, single point] | –
CC(Oc1ccc(Cl)cc1)c1ccc(C#N)c(=O)[nH]1 (stereo not given) | inconclusive: 44.7 µM [inhibitor, partial curve, poor fit] | –
C/C(=N\NC(=S)NCc1ccccc1)c1ccc2c(c1)OCCO2 | inconclusive: 31.6 µM [inhibitor, partial curve] | –
COc1cccc(C2NC(=O)NC(C)=C2C(=O)OCC2CCCO2)c1 (stereo not given) | inconclusive: 25.1 µM [inhibitor, single point] | –
CC(NC(=O)COC(=O)COc1ccc(C(=O)c2ccccc2)cc1)c1ccccc1 (stereo not given) | inconclusive: 0.562 µM [inhibitor, single point] | –
CCOc1ccc(-c2ccc(SC)nn2)cc1 | inconclusive: 1 µM [inhibitor, full curve, poor fit] | –
CCCc1nc(NC(=O)c2ccccc2)nc(NC(=O)c2ccccc2)n1 | inconclusive: 35.5 µM [inhibitor, single point] | –
N#Cc1c(-c2cccc(Br)c2)cc(-c2ccco2)[nH]c1=O | inconclusive: 22.4 µM [inhibitor, single point] | –
Cc1nc(Nc2ccc(F)cc2)[nH]c(=O)c1CCC(C)C | inconclusive: 6.31 µM [inhibitor, single point] | –
O=S(=O)(NCC(c1ccco1)N1CCc2ccccc21)c1ccccc1 (stereo not given) | inconclusive: 39.8 µM [inhibitor, single point] | –
COCCCN1C(=O)C(O)=C(C(C)=O)C1c1cccc(F)c1 (stereo not given) | inconclusive: 31.6 µM [inhibitor, single point] | –
O=C(CN1C(=O)c2ccccc2C1=O)OCC(=O)c1ccc(F)cc1 | inactive | –
CCOC(=O)Cc1csc(NC(=O)Cc2cccs2)n1 | inconclusive: 31.6 µM [inhibitor, single point] | –
CC(=O)N(C1=C(Cl)C(=O)c2ccccc2C1=O)C1CCCCC1 | inconclusive: 25.1 µM [inhibitor, single point] | –
Cc1cc(NC(=O)CC(CN(C)S(=O)(=O)c2ccccc2)c2ccccc2)no1 (stereo not given) | inconclusive: 39.8 µM [inhibitor, single point] | –
O=S(=O)(NCc1ccccc1Br)c1cccs1 | inconclusive: 3.16 µM [inhibitor, single point] | –
S=c1[nH]nc(Cc2ccccc2)n1Cc1ccco1 | inconclusive: 6.31 µM [inhibitor, single point] | –

SMILES | Potency | activity, negative = inhibition
O=C(COC(=O)c1ccc(Cl)nc1)Nc1ccc2c(c1)OCO2 | inconclusive: 22.4 µM [inhibitor, single point] | –
C/C(=N/NC(=O)CNC(=O)c1ccccn1)c1ccccc1 | inactive | –
COc1ccc(-c2cc(-c3ccccc3)nc(SCC(=O)Nc3nccs3)c2C#N)cc1 | inconclusive: 0.708 µM [inhibitor, single point] | –
O=c1[nH]ncc2c3ccccc3n(Cc3ccccc3)c12 | inconclusive: 6.31 µM [inhibitor, single point] | –
c1ccc2cc3[nH]c(CN4CCOCC4)nc3cc2c1 | inconclusive: 10 µM [inhibitor, partial curve] | –
COc1ccc(N2CCN(c3oc(COc4ccc(Cl)cc4)nc3C#N)CC2)cc1 | inconclusive: 15.8 µM [inhibitor, partial curve] | –
CCN1CCN(S(=O)(=O)c2ccc(Cl)c(C(=O)NCCOc3ccc(C)cc3)c2)CC1 | inactive | –
Oc1ccc(N=Cc2c(O)ccc3ccccc23)cc1 | inconclusive: 31.6 µM [inhibitor, single point] | –
COCCN=c1scc(-c2cccs2)n1/N=C/c1ccc(O)c(O)c1O | inconclusive: 7.94 µM [inhibitor, partial curve] | –
CN1/C(=C\C=C2/SC(=S)N(CC(=O)O)C2=O)C(C)(C)c2ccccc21 | inactive | –
Cc1ccccc1N=C1NC(=O)/C(=C/c2cccn2C)S1 | inconclusive: 3.55 µM [inhibitor, full curve, poor fit] | –
O=C(Nc1ccc(N2CCCCCC2)cc1)c1ccccc1Cl | inconclusive: 7.94 µM [inhibitor, full curve, poor fit] | –
Cc1cc(C)c2c(=O)n(CC(=O)Nc3ccc(Br)c(C)c3)sc2n1 | inactive | –
CCCNC(=O)c1ccccc1NC(=O)COc1cccc2c1OC(C)(C)C2 | inactive | –
O=C(CCc1nc(-c2ccc(Cl)cc2)no1)NCc1ccccc1CN1CCOCC1 | inconclusive: 0.501 µM [inhibitor, single point] | –
S=c1[nH]nc(COc2cccc3ccccc23)n1Cc1ccccc1 | inactive | –
Cc1ccc(C(=O)O)cc1-n1c(C)cc(C=O)c1C | inconclusive: 25.1 µM [inhibitor, single point] | –
CCOC(=O)CSc1nnc(-c2ccc(S(=O)(=O)N3CCC(C)CC3)cc2)o1 | inconclusive: 6.31 µM [inhibitor, single point] | –
O=c1c2ccccc2c(C=Nc2cccc(S(=O)(=O)NCc3ccco3)c2)c(O)n1-c1ccc(Cl)cn1 | inactive | –
CCOc1ccccc1C(=O)Nc1nnc(SCC(=O)N2CCOCC2)s1 | inconclusive: 8.91 µM [inhibitor, partial curve] | –
CC(C)NC(=O)c1ccc(CN2CCc3ccccc3C2)cc1 | inactive | –
CCOC(=O)Cc1cnc(NC(=O)CSc2nc(N)cc(N)n2)s1 | inconclusive: 28.2 µM [inhibitor, partial curve, poor fit] | –
